PubChem BioAssay (Tox21)
This list was built around the results that the source calls inconclusive (neither active nor inactive); the mix of calls is not that of the screen. Potencies of inconclusive entries are doubtful fits and often do not repeat. Calls of active or inactive are those of the source. Calls come from the whole dose curve; as a rule, active = well fitted cell-killing curve with a large enough effect in the repeat runs; inconclusive = weak or mixed curves; inactive = no such curve, though single readings can be large or run the other way.
% is set by controls: 0 for no effect and ±100 for the full control effect; potency is the fitted concentration of half-maximal effect; tags give direction and shape of the fitted curve.

Experiment: qHTS assay to identify small molecule antagonists of the androgen receptor (AR) signaling pathway - cell viability counter screen (AID 743033; note: nearly all actives have a fitted effect of over 45% in size)
Settings: AR-bla HEK293 viability, CellTiter-Glo luminescence, 16 h; activity change, negative = cytotoxicity: at 58.5 µM (top of the series) unless noted
From the text: National Center for Advancing Translational Sciences [NCATS]
NIH Chemical Genomics Center [NCGC]
U.S. Environmental Protection Agency [EPA]
National Institutes of Environmental Health Sciences [NIEHS]
National Toxicology Program [NTP]
U.S. Food and Drug Administration [FDA]
Androgen receptor (AR), a nuclear hormone receptor, plays a critical role in AR-dependent prostate cancer and other androgen related diseases. Endocrine disrupting chemicals (EDCs) and their interactions with steroid hormone receptors like AR may cause disruption of normal endocrine function as well as interfere with metabolic homeostasis, reproduction, developmental and behavioral functions. To identify the compounds that inhibit AR signaling, GeneBLAzer AR-UAS-bla-GripTite cell line (Invitrogen, Carlsbad, CA, USA) containing a beta-lactamase reporter gene under control of an Upstream Activator Sequence (UAS) stably integrated into HEK293 cells was used to screen the Tox21 10K compound library. The cytotoxicity of the Tox21 compound library against the AR-bla cell line was tested in parallel by measuring the cell viability using CellTiter-Glo assay in the same wells.
Tox21 Assay Protocol Summary:
AR-bla cells were dispensed at 2,000 cells/5 uL of assay medium per well into black wall/clear-bottom 1536-well plates using a Multidrop Combi (ThermoFisher Scientific, Waltham, MA) dispenser. After the assay plates were incubated at a 37C and 5% CO2 for 4 hr, 23 nL of compounds dissolved in DMSO, positive controls or DMSO only was transferred to the assay plate by a Pintool station (Kalypsys, San Diego, CA), followed by addition of 1 uL of agonist (R1881) in culture medium using a Bioraptr Flying Reagent Dispenser (FRD) workstation (Beckman Coulter, Indianapolis, IN, USA). The plates were incubated at a 37C and 5% CO2 for 16 h. After 1 uL of LiveBLAzerTM B/G FRET substrate was added using a Bioraptr FRD, the plates were incubated at room temperature for 2 h and fluorescence intensity was measured by an Envision plate reader (PerkinElmer, Shelton, CT). For cell viability readout that measures cytotoxicity, 4 ul/well of CellTiter-Glo reagent was added into the assay plates using a Bioraptr FRD. After 30 min incubation at room temperature, the luminescence intensity in the plates was measured using a ViewLux (PerkinElmer) plate reader.
With `CCCCCCc1ccc(-c2ccc(C#N)cc2)cc1` the “activity change, negative = cytotoxicity” value was inactive: -12.2%.
With `c1cnc2cc3c(cc2n1)C1CNCC3C1` the activity change, negative = cytotoxicity was inconclusive: -58.9% [cytotoxic] [at 78.9 µM].
In the case of `Cc1cccc(C)c1[N+](=O)[O-]`, the activity change, negative = cytotoxicity is reported as inconclusive: -37.3% [cytotoxic].
With `O=C(Nc1ccc([N+](=O)[O-])cc1)Nc1ccc([N+](=O)[O-])cc1` the Potency was inconclusive: 13.4 µM [cytotoxic, full curve, poor fit].
For `C=C(C)C(=O)OCCOCCOCCOC(=O)C(=C)C`, the Potency was inconclusive: 3.89 µM [cytotoxic, full curve, poor fit].
In the case of `CCC(Cc1ccccc1)(C(=O)c1ccc(N2CCOCC2)cc1)N(C)C` (stereo not given), the Potency is reported as inconclusive: 34.7 µM [cytotoxic, partial curve].
With `CC(C)CC(=O)C1C(=O)c2ccccc2C1=O` the Potency was inconclusive: 2.45 µM [cytotoxic, full curve, poor fit].
For `NCCNCCNCCN`, the Potency was “inactive”.
With `CC(=O)OCC(=O)[C@@]12OC(C)(C)O[C@@H]1C[C@H]1[C@@H]3C[C@H](F)C4=CC(=O)C=C[C@]4(C)[C@@]3(F)[C@@H](O)C[C@@]12C` the Potency was inconclusive: 0.0011 µM [cytotoxic].
In the case of `CCCCCC(C)O` (stereo not given), the “activity change, negative = cytotoxicity” value is reported as inactive: 2.08%.
With `Fc1ccccc1-c1ccccc1` the “activity change, negative = cytotoxicity” value was inactive: -0.214% [at 78.9 µM].
For `CC1=CC[C@H](C(C)C)C=C1`, the Potency was inconclusive: 34.7 µM [cytotoxic, partial curve, poor fit].
In the case of `NC(=O)c1ccccc1`, the “activity change, negative = cytotoxicity” value is reported as inactive: -0.13% [at 78.9 µM].
With `CCCCCCCCCCCC[N+](C)(C)CC(=O)[O-]` the Potency was inconclusive: 49 µM [cytotoxic, partial curve].
With `O=C(NCC1CCCCN1)c1cc(OCC(F)(F)F)ccc1OCC(F)(F)F` (stereo not given) the Potency was “inactive”.
For `CC1(C)C(=O)NC(=O)N1CO`, the “activity change, negative = cytotoxicity” value was inactive: 4.55%.
In the case of `CC(=O)Oc1ccc(C)cc1`, the Potency is reported as inconclusive: 0.0007 µM [cytotoxic].
In the case of `COc1cccc(N(C)C(=S)Oc2ccc3c(c2)CCCC3)n1`, the Potency is reported as inconclusive: 10.7 µM [rising, single point].
With `CCCC(=O)OCc1ccccc1` the Potency was inconclusive: 0.776 µM [cytotoxic, full curve, poor fit].
With `C#C[C@]1(O)CC[C@H]2[C@@H]3CCC4=CC(=O)CC[C@@H]4[C@H]3CC[C@@]21C` the Potency was inconclusive: 49 µM [cytotoxic, partial curve, poor fit].
In the case of `CCN(CC)CCNc1ccc(CNC=O)c2sc3ccc(OC)cc3c(=O)c12`, the Potency is reported as inconclusive: 3.47 µM [cytotoxic, full curve].
In the case of `CSc1ccc(Oc2ccc(S(N)(=O)=O)cc2CN(C)C)cc1C`, the Potency is reported as inconclusive: 49 µM [cytotoxic, partial curve, poor fit].
In the case of `OC[C@H]1O[C@@H](Oc2ccc(O)cc2)[C@H](O)[C@@H](O)[C@@H]1O`, the Potency is reported as “inactive”.
In the case of `COc1ccc(CN(CCN(C)C)c2ccccn2)cc1`, the Potency is reported as inconclusive: 0.0076 µM [cytotoxic, full curve, poor fit].
For `CCCCS(=O)(=O)N[C@@H](Cc1ccc(OCCCCC2CCNCC2)cc1)C(=O)O`, the “activity change, negative = cytotoxicity” value was inactive: 11.5%.
In the case of `CC(S)C(=O)NCC(=O)O` (stereo not given), the “activity change, negative = cytotoxicity” value is reported as inactive: 10.8%.
For `CCCCCCCCCCCCOCCO`, the Potency was inconclusive: 6.16 µM [cytotoxic, full curve].
In the case of `O=C(c1ccccc1)C1(O)CCCCC1`, the “activity change, negative = cytotoxicity” value is reported as inactive: 8.46%.
With `O=C(O)[C@H](O)[C@@H](O)[C@H](O)[C@H](O)CO` the Potency was inconclusive: 0.0006 µM [cytotoxic, full curve, poor fit].
In the case of `C#Cc1cccc(Nc2ncnc3cc(OCCOC)c(OCCOC)cc23)c1`, the “activity change, negative = cytotoxicity” value is reported as inactive: -17.7%.
For `Oc1ccc(O)c2c(O)cccc12`, the “activity change, negative = cytotoxicity” value was inactive: -8.29%.
With `CC1(C)[C@H]2CC[C@]1(C)[C@H](O)C2` the Potency was “inactive”.
With `O=P(OC(CCl)CCl)(OC(CCl)CCl)OC(CCl)CCl` the Potency was inconclusive: 38.9 µM [cytotoxic, partial curve, poor fit].
For `CCC(Cl)CCC(Cl)C(Cl)CC(Cl)C(Cl)C(Cl)CCl` (stereo not given), the “activity change, negative = cytotoxicity” value was inactive: -14.5%.
In the case of `C=CC(=O)OCC(C)OCC(C)OCC(C)OC(=O)C=C` (stereo not given), the Potency is reported as active: 54.9 µM.
In the case of `Cc1cc(CC(=O)O)c(C)n1-c1ccc(Cl)cc1`, the “activity change, negative = cytotoxicity” value is reported as inactive: -0.551%.
In the case of `c1ccc(Oc2ccccc2)cc1`, the Potency is reported as “inactive”.
In the case of `CCOC(=O)COc1ccc2c(c1)CC(NCC(O)c1cccc(Cl)c1)CC2` (stereo not given), the Potency is reported as inconclusive: 39.2 µM [cytotoxic, single point].
With `CCOC(=O)c1ccc(N(C)C)cc1` the “activity change, negative = cytotoxicity” value was inactive: -2.26%.
With `C[N+](C)(C)CC(O)CC(=O)[O-]` (stereo not given) the Potency was inconclusive: 1.2 µM [cytotoxic, full curve, poor fit].
